These are yes or no findings as the source states them, for the method shown. Some binding calls cover weakened binding; strength is not graded here.
Key:
[1] = target: full-length HspB1 (human) (UniProt P04792); assay: SEC; full-length sHsp (~19–20 μM per monomer) mixed with ACD (38–110 μM per monomer) in buffer B, 30 min at 42 °C; Superdex 200 Increase column in 50 mM phosphate pH 7.4, 150 mM NaCl, 2 mM DTT; fractions analysed by SDS–PAGE; both purified
[2] = target: T1, full-length HspB5 (αB-crystallin) (human) (UniProt P02511); assay: as above
T1 sequence: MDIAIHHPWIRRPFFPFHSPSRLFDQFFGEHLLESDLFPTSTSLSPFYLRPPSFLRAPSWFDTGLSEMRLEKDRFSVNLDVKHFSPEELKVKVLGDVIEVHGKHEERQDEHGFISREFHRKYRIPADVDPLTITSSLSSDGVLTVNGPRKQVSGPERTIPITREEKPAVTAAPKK

Chains of the proteins cited; added tags and fusions are not shown. Lines headed by an entry give the natural chain unless they say otherwise; changes in a name come on top. Residues count along the entry.
UniProt P04792: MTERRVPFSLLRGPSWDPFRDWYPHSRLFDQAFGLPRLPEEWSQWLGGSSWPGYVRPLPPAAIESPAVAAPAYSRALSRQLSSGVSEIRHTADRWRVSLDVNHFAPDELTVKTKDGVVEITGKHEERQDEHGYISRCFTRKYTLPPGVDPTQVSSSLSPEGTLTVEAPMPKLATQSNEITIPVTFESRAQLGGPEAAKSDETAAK
UniProt Q9UBY9, residues 71-154: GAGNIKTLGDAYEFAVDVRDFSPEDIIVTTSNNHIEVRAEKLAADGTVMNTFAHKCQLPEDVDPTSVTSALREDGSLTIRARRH

[3] = target: α-crystallin domain of HspB7 (B7ACD) (human) (UniProt Q9UBY9); assay: cross-linking; glutaraldehyde 0.008% or 0.024%, ACDs at 3 mg/mL in 25 mM HEPES pH 7.5, 30 min at 30 °C; Tricine–SDS–PAGE; both purified
[4] = target: α-crystallin domain of HspB7 (B7ACD) (human) (UniProt Q9UBY9); assay: dynamic light scattering; 25 °C, 20 mM Tris–acetate pH 7.6, 10 mM NaCl, 0.1 mM EDTA, 0.1 mM PMSF; protein 3.0 mg/mL; particle diameter in the intensity mode; both purified
[5] = target: T2, full-length HspB6 (human) (UniProt O14558); assay: native gel or EMSA; clear native PAGE, 12.5% gel, 80 mM glycine–Tris pH 8.6; sHsp 5–6 μM per monomer mixed with ACD 20–24 μM per monomer, 30 min at 25 °C in buffer B; Western blot with anti-HspB6 for the complexes of HspB6; both purified
T2 sequence: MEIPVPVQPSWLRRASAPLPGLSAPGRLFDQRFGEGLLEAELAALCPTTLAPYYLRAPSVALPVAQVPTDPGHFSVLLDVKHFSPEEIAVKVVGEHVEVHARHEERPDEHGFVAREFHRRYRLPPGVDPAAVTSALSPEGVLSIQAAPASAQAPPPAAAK

[6] = target: T3, full-length HspB8 (human) (UniProt Q9UJY1); assay: as above
T3 sequence: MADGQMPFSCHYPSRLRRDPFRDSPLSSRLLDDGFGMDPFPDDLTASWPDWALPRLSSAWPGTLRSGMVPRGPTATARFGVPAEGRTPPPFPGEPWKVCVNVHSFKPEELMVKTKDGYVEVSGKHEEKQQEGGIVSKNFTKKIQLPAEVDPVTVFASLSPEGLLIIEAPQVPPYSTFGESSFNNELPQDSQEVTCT

[7] = target: α-crystallin domain of HspB7 (B7ACD) (human) (UniProt Q9UBY9); assay: SEC; Superdex 75 10/300 GL, 50 mM phosphate pH 7.4, 150 mM NaCl, 2 mM DTT; 25 μL samples of 16–150 μg (25–600 μM per monomer); apparent dissociation constant, dimer to monomers, from a hyperbolic fit of elution volume against the concentration loaded; both purified
[8] = target: 3D mutant of HspB1 (S15D, S78D, S82D) (human) (UniProt P04792); assay: condition: full-length ~19–20 μM, ACD 38–110 μM per monomer; SEC; full-length sHsp (~19–20 μM per monomer) mixed with ACD (38–110 μM per monomer) in buffer B, 30 min at 42 °C; Superdex 200 Increase column in 50 mM phosphate pH 7.4, 150 mM NaCl, 2 mM DTT; fractions analysed by SDS–PAGE; both …
[9] = target: full-length HspB1 (human) (UniProt P04792); assay: as above
[10] = target: T1, full-length HspB5 (αB-crystallin) (human); assay: as above

Substance: α-crystallin domain of HspB1 (B1ACD) (from UniProt P04792 84-170) (domain or fragment)
- binding [1]: binds weakly
- binding [2]: binds weakly

Substance: α-crystallin domain of HspB7 (B7ACD) (from UniProt Q9UBY9 71-154) (domain or fragment)
- binding [3]: no binding (tested: 3 mg/mL)
- binding [4]: no binding (tested: 3 mg/mL)
- binding [5]: no binding (tested: sHsp 5–6 μM, ACD 20–24 μM per monomer)
- binding [6]: no binding (tested: sHsp 5–6 μM, ACD 20–24 μM per monomer)
- binding [7]: no binding (tested: 25–600 μM per monomer)
- binding [8]: no binding
- binding [9]: no binding
- binding [10]: no binding

Reference: publication PMC9860685
